Experimental data as given in the supplement of paper PMC12217912.
The other results are listed elsewhere or left out. The full chains were built here from the parent and the listed change. Inactive controls read about 0.05.

B1: TEV protease; numbered along this chain (parent)
chain: MGESLFKGPRDYNPISSSICHLTNESDGHTTSLYGIGFGPFIITNKHLFRRNNGTLVVQSLHGVFKVKDTTTLQQHLVDGRDMIIIRMPKDFPPFPQKLKFREPQREERICLVTTNFQTKSMSSMVSDTSCTFPSGDGIFWKHWIQTKDGQCGSPLVSTRDGFIVGIHSASNFTNTNNYFTSVPKNFMELLTNQEAQQWVSGWRLNADSVLWGGHKVFMVKPEEPFQPVKEATQL

Variants of: B1
Assay: raw area under fraction-flipped curve 0-4 h after induction (AUC4h, not background-subtracted), DNA-recorder readout of cleavage of the substrate (dimensionless); higher = more cleavage of the substrate by the protease variant
Conditions: temperature: 34 °C; time window: 0-4 h after rhamnose induction
Protocol: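 In vivo DNA recorder in E. coli TOP10(DE3) ΔrhaA at 34 °C. Each TEVp single-site mutant (parent TEVp 0) is paired with a single-site variant of the 7-mer TEVs (canonical ENLYFQ|S). The substrate sits between flexible linkers in a Bxb1-sfGFP-TEVs-SsrA fusion, so cleavage stabilises Bxb1 and speeds flipping of a recombination array, read by NGS. The value is the raw area under the fraction-flipped curve over 0-4 h after rhamnose induction (AUC4h), with ≥20 reads per time point. It is not background-subtracted; inactive controls average about 0.047.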
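Further: Bxb1 expression induced with 0.2% (w/v) L-rhamnose at OD600 near 0.5, cultures sampled hourly, flipped fraction per protease–substrate barcode pair counted by paired-end Illumina sequencing.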

Variant	area with substrate ANLYFQS	area with substrate CNLYFQS	area with substrate DNLYFQS	area with substrate FNLYFQS	area with substrate GNLYFQS	area with substrate HNLYFQS	area with substrate INLYFQS	area with substrate KNLYFQS	area with substrate LNLYFQS	area with substrate MNLYFQS	area with substrate NNLYFQS	area with substrate PNLYFQS	area with substrate SNLYFQS	area with substrate TNLYFQS	area with substrate VNLYFQS	area with substrate WNLYFQS	area with substrate YNLYFQS	area with substrate RNLYFQS	area with substrate QNLYFQS
MGESLFKGPRDYNPIMSSICHLTNESDGHTTSLYGIGFGPFIITNKHLFRRNNGTLVVQSLHGVFKVKDTTTLQQHLVDGRDMIIIRMPKDFPPFPQKLKFREPQREERICLVTTNFQTKSMSSMVSDTSCTFPSGDGIFWKHWIQTKDGQCGSPLVSTRDGFIVGIHSASNFTNTNNYFTSVPKNFMELLTNQEAQQWVSGWRLNADSVLWGGHKVFMVKPEEPFQPVKEATQL [S16M]	0.0607	0.0776	0.046	0.0689	0.07	0.063	0.0548	0.0769	0.0667	0.0479	0.0592	0.0848	0.0747	0.0613	0.0542	0.0681	0.0595	–	–
MGESLFKGPRDYNPIISSICHLTNESDGHTTSLYGIGFGPFIITNKHLFRRNNGTLVVQSLHGVFKVKDTTTLQQHLVDGRDMIIIRMPKDFPPFPQKLKFREPQREERICLVTTNFQTKSMSSMVSDTSCTFPSGDGIFWKHWIQTKDGQCGSPLVSTRDGFIVGIHSASNFTNTNNYFTSVPKNFMELLTNQEAQQWVSGWRLNADSVLWGGHKVFMVKPEEPFQPVKEATQL [S16I]	0.0541	0.0695	–	0.0589	0.0622	–	0.0196	0.0651	0.0496	–	0.0755	0.0597	0.0887	0.0588	0.0602	0.0543	0.0553	0.0626	–
MGESLFKGPRDYNPITSSICHLTNESDGHTTSLYGIGFGPFIITNKHLFRRNNGTLVVQSLHGVFKVKDTTTLQQHLVDGRDMIIIRMPKDFPPFPQKLKFREPQREERICLVTTNFQTKSMSSMVSDTSCTFPSGDGIFWKHWIQTKDGQCGSPLVSTRDGFIVGIHSASNFTNTNNYFTSVPKNFMELLTNQEAQQWVSGWRLNADSVLWGGHKVFMVKPEEPFQPVKEATQL [S16T]	0.0624	0.0617	0.0629	0.0533	–	0.0672	0.0756	0.072	0.0545	0.0674	0.0691	–	–	0.0644	0.065	0.057	0.0781	–	0.075
MGESLFKGPRDYNPIYSSICHLTNESDGHTTSLYGIGFGPFIITNKHLFRRNNGTLVVQSLHGVFKVKDTTTLQQHLVDGRDMIIIRMPKDFPPFPQKLKFREPQREERICLVTTNFQTKSMSSMVSDTSCTFPSGDGIFWKHWIQTKDGQCGSPLVSTRDGFIVGIHSASNFTNTNNYFTSVPKNFMELLTNQEAQQWVSGWRLNADSVLWGGHKVFMVKPEEPFQPVKEATQL [S16Y]	0.071	–	0.0783	0.0581	–	0.0597	0.0623	–	–	0.0593	–	0.0668	–	0.0811	0.0605	0.064	–	0.062	–
MGESLFKGPRDYNPILSSICHLTNESDGHTTSLYGIGFGPFIITNKHLFRRNNGTLVVQSLHGVFKVKDTTTLQQHLVDGRDMIIIRMPKDFPPFPQKLKFREPQREERICLVTTNFQTKSMSSMVSDTSCTFPSGDGIFWKHWIQTKDGQCGSPLVSTRDGFIVGIHSASNFTNTNNYFTSVPKNFMELLTNQEAQQWVSGWRLNADSVLWGGHKVFMVKPEEPFQPVKEATQL [S16L]	0.0687	0.0642	0.0695	0.0864	–	0.0777	0.0495	–	0.0627	0.0349	0.0641	0.0641	–	0.0628	–	0.0479	0.043	0.0586	–
MGESLFKGPRDYNPIRSSICHLTNESDGHTTSLYGIGFGPFIITNKHLFRRNNGTLVVQSLHGVFKVKDTTTLQQHLVDGRDMIIIRMPKDFPPFPQKLKFREPQREERICLVTTNFQTKSMSSMVSDTSCTFPSGDGIFWKHWIQTKDGQCGSPLVSTRDGFIVGIHSASNFTNTNNYFTSVPKNFMELLTNQEAQQWVSGWRLNADSVLWGGHKVFMVKPEEPFQPVKEATQL [S16R]	0.0879	0.0792	–	0.0668	0.0766	0.0666	0.0681	0.0713	0.058	0.0518	0.0626	0.0718	0.0637	0.0627	0.0714	0.058	0.0633	–	–
MGESLFKGPRDYNPISSSICPLTNESDGHTTSLYGIGFGPFIITNKHLFRRNNGTLVVQSLHGVFKVKDTTTLQQHLVDGRDMIIIRMPKDFPPFPQKLKFREPQREERICLVTTNFQTKSMSSMVSDTSCTFPSGDGIFWKHWIQTKDGQCGSPLVSTRDGFIVGIHSASNFTNTNNYFTSVPKNFMELLTNQEAQQWVSGWRLNADSVLWGGHKVFMVKPEEPFQPVKEATQL [H21P]	0.064	0.0488	0.0549	0.0335	0.0546	0.0506	–	0.0535	0.0473	–	0.0544	0.0634	0.0264	0.0525	–	0.0518	0.0491	–	0.0525
MGESLFKGPRDYNPISWSICHLTNESDGHTTSLYGIGFGPFIITNKHLFRRNNGTLVVQSLHGVFKVKDTTTLQQHLVDGRDMIIIRMPKDFPPFPQKLKFREPQREERICLVTTNFQTKSMSSMVSDTSCTFPSGDGIFWKHWIQTKDGQCGSPLVSTRDGFIVGIHSASNFTNTNNYFTSVPKNFMELLTNQEAQQWVSGWRLNADSVLWGGHKVFMVKPEEPFQPVKEATQL [S17W]	0.0774	0.0736	0.0712	0.0484	0.0533	0.0516	0.0489	0.0654	0.0526	0.0572	–	0.0705	0.0652	0.0654	–	0.0567	0.0636	–	–
MGESLFKGPRDYNIISSSICHLTNESDGHTTSLYGIGFGPFIITNKHLFRRNNGTLVVQSLHGVFKVKDTTTLQQHLVDGRDMIIIRMPKDFPPFPQKLKFREPQREERICLVTTNFQTKSMSSMVSDTSCTFPSGDGIFWKHWIQTKDGQCGSPLVSTRDGFIVGIHSASNFTNTNNYFTSVPKNFMELLTNQEAQQWVSGWRLNADSVLWGGHKVFMVKPEEPFQPVKEATQL [P14I]	0.074	0.0658	0.0764	0.065	0.0614	0.0556	0.0587	–	–	0.0578	0.052	0.0615	0.0426	0.0692	0.0577	0.0645	0.0573	–	0.0642
